Test results: PubChem BioAssay AID1631 (National Center for Advancing Translational Sciences (NCATS), 2009)
Screen size: about 260,000 compounds; about 890 (0.34%) were called active. Inconclusive results, whose numbers are uncertain, are shown with a selection of clear calls. Calls come from the whole dose curve; as a rule, active = well fitted activation curve with a large enough effect; inconclusive = small, poorly fitted or top-dose-only effect; inactive = no such curve, though single readings can be large or run the other way. Potencies of inconclusive entries are doubtful fits and often do not repeat.

target: Pyruvate kinase PKM (Homo sapiens) (UniProt P14618); experiment: qHTS Assay for Activators of Human Muscle isoform 2 Pyruvate Kinase; conditions: purified PKM2, Kinase-Glo ATP luminescence; Potency: activation; activation: at 57.5 µM (top of the series), 0% is enzyme alone, no compound; note: nearly all actives have a fitted effect of over 55% in size
UniProt P14618, sequence (P14618 whole entry, looked up, canonical isoform): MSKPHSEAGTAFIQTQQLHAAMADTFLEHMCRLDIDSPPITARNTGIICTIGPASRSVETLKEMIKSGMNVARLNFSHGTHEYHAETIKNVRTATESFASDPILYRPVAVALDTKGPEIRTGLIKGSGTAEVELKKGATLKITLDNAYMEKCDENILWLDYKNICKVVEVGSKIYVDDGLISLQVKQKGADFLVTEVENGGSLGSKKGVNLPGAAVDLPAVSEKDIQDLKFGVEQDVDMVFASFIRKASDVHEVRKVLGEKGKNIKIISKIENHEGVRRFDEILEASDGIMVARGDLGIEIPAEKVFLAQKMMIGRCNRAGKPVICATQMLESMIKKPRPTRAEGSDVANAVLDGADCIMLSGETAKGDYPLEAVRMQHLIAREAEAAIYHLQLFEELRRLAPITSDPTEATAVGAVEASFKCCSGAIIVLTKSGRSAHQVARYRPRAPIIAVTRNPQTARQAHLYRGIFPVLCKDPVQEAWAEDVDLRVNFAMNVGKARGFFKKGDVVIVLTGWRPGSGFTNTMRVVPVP
Procedure, shortened: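 ATP formation by purified human PK-M2, quantified via coupled luciferase luminescence after 1 h at room temperature with 0.1 mM ADP and 0.5 mM PEP final.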
% is set by controls: 0 for no effect and ±100 for the full control effect; potency is the fitted concentration of half-maximal effect; tags give direction and shape of the fitted curve.

Potency, inconclusive:
O=C(CSc1ncccn1)N/N=C/c1ccc(OC2CSC2)cc1 39.8 µM [rising, single point], CCn1c(SCC(=O)N/N=C/C(C)=C\c2ccco2)nnc1-c1ccccc1 15.8 µM [rising, partial curve], CSCCC(NC(=O)c1ccccc1Br)C(=O)Nc1ccc(C)cc1 (configuration not stated) 0.891 µM [rising, single point], CCc1cccc2c1NC(=O)C21N2CCCC2C(C(=O)c2ccc3ccccc3c2)C12C(=O)Nc1ccccc12 (configuration not stated) 28.2 µM [rising, single point], COc1cc(/C=C2/SC(=Nc3ccc(O)cc3)NC2=O)ccc1O 28.2 µM [rising, single point], COc1cc2[nH]c(=S)n(C3CC3)c(=O)c2cc1OC 4.47 µM [rising, single point], CN1CCN(c2ccc(S(=O)(=O)Nc3ccccc3)cc2[N+](=O)[O-])CC1 39.8 µM [rising, single point], N#C/C(=C\c1ccc(F)c(Cl)c1)S(=O)(=O)c1ccccn1 6.31 µM [rising, single point], O=S(=O)(Nc1ccc(S(=O)(=O)Nc2ccccc2)cc1)c1ccccc1 25.1 µM [rising, partial curve], COc1ccc(N2CCN(C(=O)[C@H](Cc3c[nH]c4ccccc34)NC(C)=O)CC2)cc1 39.8 µM [rising, single point], O=C(O)CSc1cc(C(=O)c2ccccc2O)cn2c(=O)c3c4c(sc3nc12)CCCC4 39.8 µM [rising, single point], CN1C(=O)Cc2cc(S(=O)(=O)NCCc3ccccc3)ccc21 12.6 µM [rising, partial curve], O=S(=O)(Nc1ccc(-n2cnnn2)cc1)c1ccc(F)c(F)c1F 31.6 µM [rising, single point], CCCCn1c(N)c(Sc2ccc(Cl)cc2)c(=O)[nH]c1=O 22.4 µM [rising, single point], COCCOC(=O)/C(C#N)=C/c1cn(Cc2ccccc2)nc1-c1cccnc1 35.5 µM [rising, single point], COC(=O)c1nc(N)sc1-c1ccc(OC)cc1 39.8 µM [rising, single point], CC1(C)Cc2cccc(OCC(O)CNCc3ccccn3)c2O1 (configuration not stated) 7.08 µM [rising, single point], C[c-]1[c-](C)[c-](C)[c-](C)[c-]1C.[Fe].c1cc2nccc(N3CCCC3)[c-]2c1 (configuration not stated) 31.6 µM [rising, single point], CCC1Oc2ccc(C)cc2N(CC(=O)N(Cc2cccnc2)Cc2ccc(C)o2)C1=O (configuration not stated) 1 µM [rising, full curve], CN1c2ccccc2C(=O)NC1c1ccc([N+](=O)[O-])s1 (configuration not stated) 6.31 µM [rising, single point], COc1ccc(C2=NN(c3nc(-c4ccccc4)c(CC(=O)O)s3)C(c3ccco3)C2)cc1 (configuration not stated) 7.08 µM [rising, full curve], CN1C(=O)c2cccc3c(S(=O)(=O)N(C)C)ccc1c23 28.2 µM [rising, single point], Cc1noc(C)c1S(=O)(=O)Nc1ccc(C(=O)N2CCN(c3cccc(Cl)c3)CC2)cc1 35.5 µM [rising, single point], CCOC(=O)C1=C(C)N(C)C(=O)NC1c1cccc2ccccc12 (configuration not stated) 7.94 µM [rising, single point], CCCCCC1CCC(C(=O)N2CCOCC2)CC1 (configuration not stated) 0.282 µM [rising, full curve], CCOC(=O)c1c(NC(=O)CSc2nc3cc(Cl)ccc3c(=O)n2Cc2ccco2)sc(C(=O)N(C)C)c1C 17.8 µM [rising, partial curve], COC(=O)CN1C(=O)N/C(=C/c2ccc(C)o2)C1=O 14.1 µM [rising, partial curve], CCOC1=NS(=O)(=O)c2ccccc21 7.94 µM [rising, single point], CCn1c(=O)n(CC)c2cc(S(=O)(=O)Nc3ccccc3C)c(C)cc21 12.6 µM [rising, partial curve], O=C1NC(=S)N(C(=O)c2ccc(F)cc2)/C1=C/c1ccccc1 5.62 µM [rising, full curve], CCOc1ccc(CC(=O)NCC(=O)NCc2cc(=O)n(C)c(=O)n2C)cc1 39.8 µM [rising, single point], CCCCn1nnnc1SCC(=O)c1cc(Cl)ccc1OC 25.1 µM [rising, single point], Cc1cc(C)c(S(=O)(=O)N2C=CC(C(F)(F)F)=NCC2)c(C)c1 15.8 µM [rising, partial curve], CCN(CC)c1ccc2cc(S(=O)(=O)c3ccc(C)cc3)c(=O)oc2c1 2.51 µM [rising, full curve], COc1cccc(OCCn2cc(C(C)=O)c3ccccc32)c1 25.1 µM [rising, single point], Nc1c(S(=O)(=O)c2ccccc2)c2nc3ccccc3nc2n1Cc1ccco1 28.2 µM [rising, single point], COc1ccc(C(=O)Nc2ncc3c(n2)CC(c2ccco2)CC3=O)cc1 (configuration not stated) 35.5 µM [rising, single point], O=C1Nc2ccc(S(=O)(=O)NCC3CCCO3)c3cccc1c23 (configuration not stated) 28.2 µM [rising, single point], O=C(CSc1nnc(SCc2ccccc2)s1)N/N=C/C=C\c1ccco1 7.08 µM [rising, full curve], CC(C)c1ccc(N(CC(=O)NCC2CCCO2)C(=O)Cn2nnc(-c3cccs3)n2)cc1 (configuration not stated) 39.8 µM [rising, single point], O=C1CCCN2N=C(SCC(=O)Nc3nccs3)SC2=N1 12.6 µM [rising, partial curve], CC(NC(=O)Cn1nnc(-c2ccncc2)n1)c1ccccc1 (configuration not stated) 3.98 µM [rising, single point], Cc1ccc(/C=C2/SC(=S)N(c3ccc(S(=O)(=O)Nc4nccs4)cc3)C2=O)cc1 31.6 µM [rising, single point], CC1CN(C(=O)c2ccc(COc3ccccc3Br)o2)CC(C)O1 (configuration not stated) 31.6 µM [rising, single point], Clc1ccc(OCCn2cnc3ccccc32)c(Cl)c1 22.4 µM [rising, single point], CC(C)(C)c1ccc(Oc2ccc(NC(=O)c3ccccc3C(=O)O)cn2)cc1 35.5 µM [rising, single point]

Potency, active:
Nc1nc(SCC(=O)Nc2ccc([N+](=O)[O-])cc2Br)n[nH]1 3.16 µM, CCCN1C(=O)S/C(=C/c2ccc(N3CCOCC3)o2)C1=O 1 µM, COc1cccc(NS(=O)(=O)c2ccc3c(c2)n(C)c(=O)c(=O)n3C)c1 1.12 µM, COc1ccc(S(=O)(=O)N(C)c2ccc(C(=O)NCc3ccco3)cc2)cc1 12.6 µM, Cc1cccc(C)c1NC(=S)NCCc1ccc(O)c(O)c1 28.2 µM, COc1ccccc1NS(=O)(=O)c1cc2c(cc1C)NC(=O)CO2 7.08 µM

Potency, inactive:
N#Cc1c(N)oc(-c2ccc3c(c2)OCO3)c1-c1ccc2c(c1)OCO2, COc1ccc(NC(=O)CSC2=C(C#N)C(c3ccco3)C3=C(CCCC3=O)N2)c(OC)c1 (configuration not stated), Cc1ccc(C)c(NC(=S)NC(C)C(c2cccs2)N2CCOCC2)c1 (configuration not stated), CCCOC(=O)c1ccc(NC(=O)C2CCCO2)cc1 (configuration not stated), Cc1ccc(-n2c(-c3nn(C)cc3Cl)n[nH]c2=S)cc1, Cc1c(N2C(=O)/C(=C\c3ccccc3O)SC2=S)c(=O)n(-c2ccccc2)n1C, CCCCNC(=O)CCCCCn1c(=O)[nH]c2cc(C(=O)OC)ccc2c1=O, Cc1cc(NC(=O)C2CCCC2)n(-c2nc3ccccc3[nH]2)n1, C=C(C)COc1ccc(-c2n[nH]c(C)c2-c2ccc(OC)c(OC)c2)c(O)c1, N=c1c(-c2nc3ccccc3[nH]2)cc(C(=O)c2cccs2)nn1-c1ccccc1, O=C(/C=C/c1ccc(OC(F)F)cc1)OCC(=O)N1CCN(C(=O)c2ccco2)CC1, S=c1[nH]nc(Cc2ccccc2)n1-c1cccc2ccccc12, CC1CC1C(=O)Nc1nc(-c2cccs2)c(-c2cccs2)s1 (configuration not stated), COc1ccccc1NC(=O)c1cc(OC)c(OC)cc1[N+](=O)[O-], COC(=O)C1=C(C)NC(=S)NC1c1sccc1C (configuration not stated), COc1ccc(C(=O)OCCN2CCCCC2)cc1, O=C(COC(=O)c1ccc(NS(=O)(=O)c2cccs2)cc1O)Nc1nc2ccccc2s1, CCNc1nc(N)c(C(=O)C23CC4CC(CC(C4)C2)C3)s1, O=C1C2C3C=CC(CC3)C2C(=O)N1/N=C/c1c[nH]c2ccccc12 (configuration not stated)

activation, inactive:
CCOC(=O)c1ccc(NC(=O)C2CCCN(c3cnccn3)C2)cc1 (configuration not stated) 7.96% [at 0.46 µM, 0% is enzyme alone, no compound]
